According to PubChem BioAssay AID2675 (National Center for Advancing Translational Sciences (NCATS), 2010):
In all, about 280,000 compounds went through this assay and about 100 (0.036%) were called active. Inconclusive results, whose numbers are uncertain, are shown with a selection of clear calls. The call rests on the fitted dose curve; in most records, active means well fitted inhibition curve with a large enough effect in the signal ratio, with a control signal flat (not every such curve was filed as active); inconclusive means small, poorly fitted or top-dose-only effect, or effect the other way, or a change in a side signal; inactive means no such curve, though single readings can be large or run the other way; the % refers to the signal ratio. Where the call is inconclusive, the potency comes from a doubtful curve fit. “Side channel” marks fits to a control or component signal instead of the main read-out.
Potency means the concentration at half of the fitted maximal effect; tags describe the fitted curve by direction and shape or compound fluorescence and quenching.

What follows are molecules tested against Muscleblind-like protein 1 (Homo sapiens) (UniProt Q9NR56) (assay: qHTS Assay for Inhibitors of MBNL1-poly(CUG) RNA binding). Settings: TR-FRET MBNL1-His/biotin-(CUG)12 binding, 665/545 ratio; series mostly up to 57.5 µM.
Chain of UniProt Q9NR56 (Q9NR56 whole entry, looked up): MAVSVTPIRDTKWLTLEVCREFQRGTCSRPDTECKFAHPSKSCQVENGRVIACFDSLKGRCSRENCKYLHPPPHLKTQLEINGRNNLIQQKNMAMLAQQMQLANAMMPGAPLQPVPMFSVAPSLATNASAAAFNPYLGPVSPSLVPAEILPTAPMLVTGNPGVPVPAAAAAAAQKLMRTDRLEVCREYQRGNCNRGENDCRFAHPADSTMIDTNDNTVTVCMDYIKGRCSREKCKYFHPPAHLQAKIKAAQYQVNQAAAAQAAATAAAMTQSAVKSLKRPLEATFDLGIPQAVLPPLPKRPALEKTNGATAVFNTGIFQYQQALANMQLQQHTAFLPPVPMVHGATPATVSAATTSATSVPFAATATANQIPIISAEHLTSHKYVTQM
Procedure, shortened: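 MBNL1-His + Biotin-(CUG)12, cpd titration 92 nM–58 uM; Tb anti-His Ab 0.055 ng/ul, SA-XL665 5 nM (final); 60 min RT; ratiometric 665/545 nm, Ex 340 nm; normalized to buffer and full-complex controls.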
`CC(=O)N1c2ccc(S(=O)(=O)NCCc3ccc(S(N)(=O)=O)cc3)cc2CC1C` (stereo not given) was tested, and the Potency was “inactive”.
With `Cc1ccc(C(=O)Nc2nnc(-c3ccncc3)o2)cc1` the Potency was “inactive”.
`O=C(NCCc1ccccc1)c1ccc(Cl)cc1[N+](=O)[O-]` was tested, and the Potency was inconclusive: 10 µM [quencher, side channel, partial curve].
`O=c1[nH]c2ccc(Cl)cc2c(O)c1Cc1ccccc1` was tested, and the Potency was inconclusive: 100 µM [inhibitor, single point].
With `O=C(CN1C(=O)c2ccccc2C1=O)Nc1cc([N+](=O)[O-])ccc1O` the Potency was inconclusive: 25.1 µM [quencher, side channel, partial curve].
In the case of `Cc1c(Cl)c([N+](=O)[O-])nn1Cc1ccc(C(=O)NN)o1`, the Potency is reported as inconclusive: 28.2 µM [quencher, side channel, single point].
With `O=C(OCC#CCSc1nnc(-c2ccc(Br)cc2)o1)c1cccs1` the Potency was inconclusive: 126 µM [inhibitor, single point].
In the case of `O=C(Cn1nnc(-c2ccc([N+](=O)[O-])cc2)n1)NNC(=O)c1ccccc1`, the Potency is reported as inconclusive: 3.16 µM [quencher, side channel, full curve, poor fit].
`COc1ccc(CCn2c(-c3ccco3)nc3nc4ccccc4nc32)cc1OC` was tested, and the Potency was inconclusive: 3.98 µM [quencher, side channel, full curve].
In the case of `Cc1cccc(NC(=S)NNC(=O)c2cccc([N+](=O)[O-])c2)c1`, the Potency is reported as inconclusive: 15.8 µM [quencher, side channel, partial curve].
With `O=C(N/N=C/c1cccc(Cl)c1)C(c1ccncc1)N1CCOCC1` (stereo not given) the Potency was inconclusive: 17.8 µM [quencher, side channel, partial curve].
For `O=C(NCCCn1ccnc1)C(=O)NCC1OCCN1S(=O)(=O)c1ccc2c(c1)OCCO2` (stereo not given), the Potency was “inactive”.
For `CCc1ccc(NC(=O)C2=CC(c3cccs3)=NS(=O)(=O)N2C)cc1`, the Potency was inconclusive: 12.6 µM [quencher, side channel, partial curve].
For `CC(NC(=O)Nc1ccc([N+](=O)[O-])cc1)C(c1ccccc1)N1CCOCC1` (stereo not given), the Potency was inconclusive: 31.6 µM [quencher, side channel, partial curve].
With `COc1ccccc1OCC(=O)N1CCN(C(=O)COc2ccccc2OC)CC1` the Potency was “inactive”.
For `CCN(CC)C(=O)c1ccc(/C=C/c2c[nH]c3ccccc23)[n+](C)c1`, the Potency was inconclusive: 3.16 µM [quencher, side channel, single point].
For `Cc1cc(Nc2ccc(Br)cc2F)n2nc(C)nc2n1`, the Potency was “inactive”.
`Cn1ccnc1Sc1ccc(/C=N/NC(=O)c2ccccc2O)cc1[N+](=O)[O-]` was tested, and the Potency was inconclusive: 15.8 µM [quencher, side channel, partial curve].
In the case of `O=S(=O)(NCCn1ccc2ccccc21)c1ccccc1`, the Potency is reported as inconclusive: 3.98 µM [quencher, side channel, partial curve, poor fit].
`N#C/C(=C\c1cccnc1)c1ccc([N+](=O)[O-])cc1` was tested, and the Potency was inconclusive: 10 µM [quencher, side channel, partial curve].
`COc1cc(/C=N/n2c(C3CCCCC3)n[nH]c2=S)ccc1O` was tested, and the Potency was “inactive”.
`Cc1oc2c(CN3CCCC3)c(O)ccc2c(=O)c1Oc1ccccc1Br` was tested, and the Potency was “inactive”.
For `CCOC(=O)N1CCc2c(sc3nc4n(c(=O)c23)N=C(C)CS4)C1`, the Potency was inconclusive: 20 µM [quencher, side channel, partial curve].
For `CN1C(=O)c2cccc(NCCCN3C(=O)c4ccccc4C3=O)c2C1=O`, the Potency was inconclusive: 3.55 µM [quencher, side channel, partial curve].
For `COc1ccc(C2=Nn3c(nnc3-c3ccccn3)SC2)cc1OC`, the Potency was inconclusive: 28.2 µM [quencher, side channel, partial curve].
`COc1ccc(-c2[nH]ncc2-c2ccc(Cl)cc2)c(O)c1` was tested, and the Potency was “inactive”.
In the case of `O=C(CCC(=O)CCN1CCCCC1)CCN1CCCCC1`, the Potency is reported as “inactive”.
In the case of `Cc1nc2c(cnn2-c2ccccc2)c(=O)n1/N=C/c1ccccc1`, the Potency is reported as “inactive”.
With `O=[N+]([O-])c1ccccc1S(=O)(=O)NC1CCCC1` the Potency was inconclusive: 17.8 µM [quencher, side channel, single point].
With `COc1ccccc1N1CCN(C(=O)CSc2ncnc3scc(-c4ccccc4)c23)CC1` the Potency was inconclusive: 0.112 µM [fluorescent, side channel, full curve].
With `COc1ccc(C(=O)N/N=C/c2sc(=O)n(Cc3cccc(C(=O)O)c3)c2Cl)cc1` the Potency was inconclusive: 17.8 µM [quencher, side channel, single point].
For `Cc1cc(C)c2c(c1)/C(=C/C(=O)c1ccc(Br)s1)C(=O)N2`, the Potency was “inactive”.
For `N#Cc1cc([N+](=O)[O-])cnc1NCC(O)CO` (stereo not given), the Potency was inconclusive: 31.6 µM [quencher, side channel, partial curve].
`CCOC(=O)N1CCN(C(=O)c2ccc3nc4ccc(Cl)cc4c(=O)n3c2)CC1` was tested, and the Potency was inconclusive: 31.6 µM [quencher, side channel, single point].
For `COC(=O)C(NC(=O)c1ccccc1C)(Nc1ncc(S(=O)(=O)c2ccc([N+](=O)[O-])cc2)s1)C(F)(F)F` (stereo not given), the Potency was inconclusive: 20 µM [quencher, side channel, partial curve].
`CCNc1nc(C)c(CN(C(C)=O)c2ccccc2)nc1C#N` was tested, and the Potency was inconclusive: 31.6 µM [quencher, side channel, single point].
`COc1cc2c(cc1OC)n(CC(=O)NC1CCCCCC1)n1c(C)cc(=O)nc21` was tested, and the Potency was inconclusive: 31.6 µM [fluorescent, side channel, single point].
For `CC(=O)NC(Cc1ccc(C)cc1)C(=O)NC1CCN(c2ncccc2[N+](=O)[O-])CC1` (stereo not given), the Potency was inconclusive: 12.6 µM [activator, single point].
For `CCOC(=O)/C(=C/C=C1\Sc2cc(C)c(C)cc2N1CC)C(C)=O`, the Potency was inconclusive: 3.55 µM [quencher, side channel, full curve].
With `O=C(O)c1cc2ccc3ccccc3c2oc1=O` the Potency was inconclusive: 20 µM [quencher, side channel, single point].
In the case of `O=C(CCN1C(=O)c2ccncc2C1=O)NCc1ccc(Cl)cc1`, the Potency is reported as inconclusive: 11.2 µM [quencher, partial curve].
`COc1ccc(CCNC(=O)CC2Nc3cc(C)c(C)cc3NC2=O)cc1OC` (stereo not given) was tested, and the Potency was inconclusive: 15.8 µM [quencher, side channel, partial curve].
In the case of `O=C(O)C1C2CCC(CC2)C1C(=O)N1CCN(Cc2ccc(F)cc2)CC1` (stereo not given), the Potency is reported as “inactive”.
`COc1ccc(/C=N/n2c(=S)n(C)c3ccccc32)cc1OC` was tested, and the Potency was inconclusive: 31.6 µM [quencher, side channel, partial curve].
For `Cc1sc(NC(=O)CCl)c(C(=O)c2ccccc2)c1C`, the Potency was inconclusive: 0.141 µM [quencher, side channel, full curve, poor fit].
In the case of `COc1ccc(OC)c(C(=O)NC(CC(N)=O)c2ccc(NCc3ccccn3)c([N+](=O)[O-])c2)c1` (stereo not given), the Potency is reported as inconclusive: 17.8 µM [quencher, side channel, partial curve, poor fit].
With `Cc1nc2ccccc2nc1OCc1ccc([N+](=O)[O-])cc1` the Potency was inconclusive: 25.1 µM [quencher, side channel, single point].
In the case of `CCCCONc1ncnc2nonc12`, the Potency is reported as inconclusive: 35.5 µM [quencher, side channel, single point].
In the case of `CCOC(=O)CCCCC(=O)c1[nH]c(=O)[nH]c1Cn1ccnc1`, the Potency is reported as active: 39.8 µM.
For `COc1cc(Cl)c(C)cc1NC(=O)CSCC#N`, the Potency was inconclusive: 4.47 µM [quencher, side channel, partial curve].
For `Cc1cc(C(=O)NCC(=O)OCC(=O)NCCc2ccccc2)ccc1[N+](=O)[O-]`, the Potency was inconclusive: 28.2 µM [quencher, side channel, partial curve].
For `O=C(CCCNS(=O)(=O)c1cccc2nsnc12)NCc1ccccc1`, the Potency was inconclusive: 15.8 µM [quencher, side channel, partial curve].
For `COc1ccc(/C=C/c2cccc[n+]2C)c(O)c1`, the Potency was inconclusive: 31.6 µM [quencher, side channel, single point].
In the case of `CC(=O)OCCNc1cc(N2CCN(C)CC2)c2noc3c2c1C(=O)c1ccccc1-3`, the Potency is reported as inconclusive: 2.82 µM [quencher, side channel, full curve].
For `CC(=O)c1ccc(NC(=O)N2CCN(c3cccc(Cl)c3)CC2)cc1`, the Potency was “inactive”.
`CNc1ncnc2sc(-c3ccccc3)cc12` was tested, and the Potency was inconclusive: 31.6 µM [quencher, side channel, single point].
`COc1ccc(NC(=O)c2cc([N+](=O)[O-])ccc2O)cc1` was tested, and the Potency was inconclusive: 15.8 µM [quencher, side channel, partial curve].
For `O=C(N/N=C/c1ccncc1)c1cccs1`, the Potency was inconclusive: 35.5 µM [quencher, side channel, single point].
For `CCOC(=O)N1CCC(NC(=O)Cn2cc3c(n2)CCCCC3)CC1`, the Potency was inconclusive: 39.8 µM [quencher, side channel, single point].
With `CCOc1cccc(C2c3c(oc4cc(C)c(C)cc4c3=O)C(=O)N2CCCN(C)C)c1` (stereo not given) the Potency was inconclusive: 2.82 µM [quencher, side channel, partial curve].
